Measurements from publication PMC6451091.
Some of the results follow. For part of these data: At the low end of the ranking the order means little. For part of these data: The protein was read in a cell extract, so binding may be indirect.

Experiments:
Conditions in all cases: 20 mM HEPES pH 7.9, 100 mM NaCl, 1 mM DTT, 0.2 mg/mL BSA, 0.02% Triton X-100, 2% milk, 0.4 mg/mL salmon testes DNA; 1 h; temperature not stated; high values mean tight binding; double strand, one strand shown; sequences stand for … in GCCTAGCAC…GTGCTAGGTCTTGATTCGCTTGACGCTGCTG
PU.1 (IVT) = PU.1 (IVT) (UniProt P17947); experiment: protein-binding microarray (PBM)
[1] = biological target: PU.1 (endogenous, THP-1 nuclear extract) (UniProt P17947); experiment: nuclear extract protein-binding microarray (nextPBM)
[2] = biological target: T1, FLI1 (endogenous, THP-1 nuclear extract) (UniProt Q01543); experiment: as above
T1 sequence: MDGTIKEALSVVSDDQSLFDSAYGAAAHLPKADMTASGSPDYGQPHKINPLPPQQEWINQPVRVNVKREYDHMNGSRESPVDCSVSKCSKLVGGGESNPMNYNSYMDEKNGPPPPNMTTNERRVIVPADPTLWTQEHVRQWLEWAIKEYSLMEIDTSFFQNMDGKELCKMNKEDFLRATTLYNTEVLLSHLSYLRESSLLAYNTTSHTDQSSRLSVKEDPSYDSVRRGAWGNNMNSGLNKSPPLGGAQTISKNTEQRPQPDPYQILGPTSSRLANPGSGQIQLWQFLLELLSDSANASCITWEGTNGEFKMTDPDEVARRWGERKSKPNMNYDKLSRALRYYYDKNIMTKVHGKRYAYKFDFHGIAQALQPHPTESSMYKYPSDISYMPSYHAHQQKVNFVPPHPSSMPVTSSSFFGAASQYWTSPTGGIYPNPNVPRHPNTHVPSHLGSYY

CGAATCAGGAAGTGCGCCCA
binding signal (PU.1 (IVT)): 4.45 z-score | binding signal [1]: 5.15 z-score | binding signal [2]: 3.24 z-score

AAATTGAGGAAGTCTAGTTC
binding signal (PU.1 (IVT)): 6.59 z-score | binding signal [1]: 6.74 z-score | binding signal [2]: 3.06 z-score

CCAAAGAGGAAGTGAATGAA
binding signal (PU.1 (IVT)): 6.6 z-score | binding signal [1]: 6.77 z-score | binding signal [2]: 3.72 z-score

GAGGGGAGGAAGTGGGCAGG
binding signal (PU.1 (IVT)): 2.5 z-score | binding signal [1]: 2.7 z-score | binding signal [2]: 2.36 z-score

GATGGGAGGAAGTGTTTGAG
binding signal (PU.1 (IVT)): 3.32 z-score | binding signal [1]: 2.77 z-score | binding signal [2]: 2.76 z-score

AGAAAAAGGAACTGAGGGAG
binding signal (PU.1 (IVT)): 3.23 z-score | binding signal [1]: 3.2 z-score | binding signal [2]: 0.768 z-score

ACTTTAAGGAAGTGAGATTT
binding signal (PU.1 (IVT)): 4.66 z-score | binding signal [1]: 5.06 z-score | binding signal [2]: 1.84 z-score

GAAAAGAGGAAGCCCTAACA
binding signal (PU.1 (IVT)): 5.18 z-score | binding signal [1]: 6.12 z-score | binding signal [2]: 2.01 z-score

CGAAACGGGAAGTGCTAAAC
binding signal (PU.1 (IVT)): 6.14 z-score | binding signal [1]: 6.48 z-score | binding signal [2]: 3 z-score

TAAAAGAGGAAGTGTTTTAG
binding signal (PU.1 (IVT)): 8.26 z-score | binding signal [1]: 7.47 z-score | binding signal [2]: 4.05 z-score

CAAGAGAGGAAGTAACAGCA
binding signal (PU.1 (IVT)): 4.89 z-score | binding signal [1]: 5.35 z-score | binding signal [2]: 2.73 z-score

GATAAGACGAAGTCCTCTGT
binding signal (PU.1 (IVT)): -0.721 z-score | binding signal [1]: 0.108 z-score | binding signal [2]: 0.0442 z-score

GAATGAAGGAAGTGGAAGTC
binding signal (PU.1 (IVT)): 4 z-score | binding signal [1]: 3.93 z-score | binding signal [2]: 2.57 z-score

CAAAAAGGAAAGTGGATGCT
binding signal (PU.1 (IVT)): 0.773 z-score | binding signal [1]: 0.165 z-score | binding signal [2]: 0.841 z-score

TTTTAGAGGAACTGCAAAAA
binding signal (PU.1 (IVT)): 2.94 z-score | binding signal [1]: 2.73 z-score | binding signal [2]: 0.901 z-score

TCAGGGAGGAACTGAAATGG
binding signal (PU.1 (IVT)): 2.21 z-score | binding signal [1]: 2.42 z-score | binding signal [2]: 1.02 z-score

AGACAGGGGAAGTGATCTGC
binding signal (PU.1 (IVT)): 3.9 z-score | binding signal [1]: 3.47 z-score | binding signal [2]: 1.88 z-score

AAGGAGAGGAAGTGACCAGC
binding signal (PU.1 (IVT)): 4.3 z-score | binding signal [1]: 4.17 z-score | binding signal [2]: 2.68 z-score

AAAAACAGGAACTGTCTTTC
binding signal (PU.1 (IVT)): 6.51 z-score | binding signal [1]: 6.56 z-score | binding signal [2]: 2.64 z-score

AAGGGGAGGAAGTACAGCCC
binding signal (PU.1 (IVT)): 3.46 z-score | binding signal [1]: 3.11 z-score | binding signal [2]: 2.1 z-score

GAGGTGAGGAAGTGGGAGGC
binding signal (PU.1 (IVT)): 2.83 z-score | binding signal [1]: 2.74 z-score | binding signal [2]: 1.71 z-score

GAAAAGAGGAAATGAGGTAG
binding signal (PU.1 (IVT)): 6.07 z-score | binding signal [1]: 6.31 z-score | binding signal [2]: 3.4 z-score

CAAGAGAGGAAGTGACATTT
binding signal (PU.1 (IVT)): 5.45 z-score | binding signal [1]: 5.21 z-score | binding signal [2]: 3.51 z-score

CAAATGAGGAACTGACGCGG
binding signal (PU.1 (IVT)): 5.71 z-score | binding signal [1]: 6.05 z-score | binding signal [2]: 2.56 z-score

AGAAAGAGGAAGTGAAGCTA
binding signal (PU.1 (IVT)): 8.64 z-score | binding signal [1]: 7.27 z-score | binding signal [2]: 4.46 z-score

TGAAAGAGGAAGTGCTATCT
binding signal (PU.1 (IVT)): 8.02 z-score | binding signal [1]: 7.35 z-score | binding signal [2]: 3.97 z-score

GAAAACAGGAACTGGTAATT
binding signal (PU.1 (IVT)): 5.84 z-score | binding signal [1]: 6.23 z-score | binding signal [2]: 2.67 z-score

AAAAAAAGGAAGTCTATCCC
binding signal (PU.1 (IVT)): 6.05 z-score | binding signal [1]: 5.43 z-score | binding signal [2]: 2.4 z-score

TAGAAAGGGAAGTGGCTTTT
binding signal (PU.1 (IVT)): 5.09 z-score | binding signal [1]: 5.25 z-score | binding signal [2]: 2.54 z-score

CAAAAGAGGAAGTCGCATTA
binding signal (PU.1 (IVT)): 7.81 z-score | binding signal [1]: 7.21 z-score | binding signal [2]: 3.71 z-score

TTTGAAAGGAAGTGAAGAGG
binding signal (PU.1 (IVT)): 1.78 z-score | binding signal [1]: 1.87 z-score | binding signal [2]: 2.36 z-score

TGAGAGAGGAAGTGGAGCTC
binding signal (PU.1 (IVT)): 4.2 z-score | binding signal [1]: 4.36 z-score | binding signal [2]: 3.03 z-score

CAAAACAGGAAGTGATGTTC
binding signal (PU.1 (IVT)): 7.97 z-score | binding signal [1]: 7.52 z-score | binding signal [2]: 5.73 z-score

GTGGAAGGGAAGTGGGGAAA
binding signal (PU.1 (IVT)): 2.6 z-score | binding signal [1]: 2.47 z-score | binding signal [2]: 2.08 z-score

AGAAAGAGGAACTGGTTCCT
binding signal (PU.1 (IVT)): 6.82 z-score | binding signal [1]: 7.18 z-score | binding signal [2]: 3.04 z-score

GGAGGGAGGAAGTGGCAGAG
binding signal (PU.1 (IVT)): 3.9 z-score | binding signal [1]: 3.29 z-score | binding signal [2]: 2.61 z-score

TAGATGAGGAAATGAAACAT
binding signal (PU.1 (IVT)): 2.65 z-score | binding signal [1]: 2.81 z-score | binding signal [2]: 1.95 z-score

CAAAAGCGGAAGTGGTGCCT
binding signal (PU.1 (IVT)): 8.56 z-score | binding signal [1]: 7.27 z-score | binding signal [2]: 5.35 z-score

TGAAGGGGGAAGTGCCGCAC
binding signal (PU.1 (IVT)): 4.06 z-score | binding signal [1]: 4.48 z-score | binding signal [2]: 1.95 z-score

AGAGAAGGGAAGTGAGATAC
binding signal (PU.1 (IVT)): 3.12 z-score | binding signal [1]: 2.74 z-score | binding signal [2]: 1.77 z-score

TGGAAGAGGAAGTGAGAGAG
binding signal (PU.1 (IVT)): 5.56 z-score | binding signal [1]: 6.37 z-score | binding signal [2]: 3.25 z-score

CGTGAGGGGAAGTGACTGAA
binding signal (PU.1 (IVT)): 3.77 z-score | binding signal [1]: 4.18 z-score | binding signal [2]: 2.27 z-score

AAAAAAAGGAAGTCTTTCAT
binding signal (PU.1 (IVT)): 6.3 z-score | binding signal [1]: 5.58 z-score | binding signal [2]: 2.75 z-score

GAAAAAGGGAAGTGCCCTGC
binding signal (PU.1 (IVT)): 7.25 z-score | binding signal [1]: 7.12 z-score | binding signal [2]: 2.96 z-score

TGGAAGGGGAAGTGGTGGTG
binding signal (PU.1 (IVT)): 5.36 z-score | binding signal [1]: 5.57 z-score | binding signal [2]: 2.56 z-score

AAAAAAAGGAACTGGCTAGA
binding signal (PU.1 (IVT)): 4.49 z-score | binding signal [1]: 4 z-score | binding signal [2]: 1.31 z-score

GAAATAGGGAAGTGAGACAG
binding signal (PU.1 (IVT)): 6.59 z-score | binding signal [1]: 6.88 z-score | binding signal [2]: 2.48 z-score

CAAAACAGGAAGTCCCATAG
binding signal (PU.1 (IVT)): 6.93 z-score | binding signal [1]: 7.01 z-score | binding signal [2]: 4.83 z-score

GAAAAAGGGAAGTGAGTTGT
binding signal (PU.1 (IVT)): 7.63 z-score | binding signal [1]: 6.97 z-score | binding signal [2]: 3.62 z-score

CAAAAGAGGAAGTCCTCAAG
binding signal (PU.1 (IVT)): 7.96 z-score | binding signal [1]: 7.33 z-score | binding signal [2]: 4.2 z-score

TCTTTGAGGAAGTGCTGCAG
binding signal (PU.1 (IVT)): 5.19 z-score | binding signal [1]: 5.58 z-score | binding signal [2]: 2.36 z-score

AGGGAAGGGAAGTGGAATCC
binding signal (PU.1 (IVT)): 2.76 z-score | binding signal [1]: 2.57 z-score | binding signal [2]: 1.77 z-score

AGAAAAGGGAAGTGAGGTAC
binding signal (PU.1 (IVT)): 7.13 z-score | binding signal [1]: 7.13 z-score | binding signal [2]: 3 z-score

GGAAAGAGGAAGTCAAGTCC
binding signal (PU.1 (IVT)): 7.77 z-score | binding signal [1]: 7.25 z-score | binding signal [2]: 3.69 z-score

GAAAAGAGGAAGTCAAACTG
binding signal (PU.1 (IVT)): 7.89 z-score | binding signal [1]: 7.18 z-score | binding signal [2]: 4.53 z-score

GGTAAGAGGAAGTCCTTGTC
binding signal (PU.1 (IVT)): 5.37 z-score | binding signal [1]: 6.2 z-score | binding signal [2]: 2.82 z-score

AAAAAAAGGAAGTGAGATAA
binding signal (PU.1 (IVT)): 6.74 z-score | binding signal [1]: 6.75 z-score | binding signal [2]: 3.34 z-score
